{"source": "PubChem BioAssay AID1345082", "about": "(National Center for Advancing Translational Sciences (NCATS), 2018)", "note": "In all, about 94,000 compounds went through this assay and about 4,000 (4.3%) were called active. The inconclusive results got no clear call from the source; some entries with a clear call stand among them for comparison. The call rests on the fitted dose curve; in most records, active means well fitted inhibition curve with a large enough effect; inconclusive means small, poorly fitted or top-dose-only effect; inactive means no such curve, though single readings can be large or run the other way. A potency beside an inconclusive call is a rough fit, not a confirmed value. Potency means the concentration at half of the fitted maximal effect; tags describe the fitted curve by direction and shape."}
{"experiment": "Cytotoxic Profiling in NIH 3T3 Cell Line of Diverse Libraries Using Quantitative High-Throughput Screening; further: nearly all actives have a fitted effect of over 55% in size", "settings": "NIH 3T3 viability, CellTiter-Glo ATP luminescence, 48-72 h; series mostly up to 96.7 µM", "in_short": "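NIH 3T3 cells at 400 cells/well received 23 nL of compound by pintool and were incubated 48 or 72 h at 37 °C. Viability was read as ATP-coupled CellTiter-Glo luminescence.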"}
{"smiles": "Cc1ccc(NC(=O)c2cc3n(n2)CC(c2ccc(Cl)cc2)OC3)cc1F", "note": "(stereo not given)", "Potency": "inconclusive: 50.1 µM [inhibitor, partial curve, poor fit]"}
{"smiles": "O=C1[C@H]2CN(Cc3cccc(Cl)c3F)C[C@H]2C(=O)N1Cc1ccc2c(c1)OCO2", "Potency": "inconclusive: 50.1 µM [inhibitor, partial curve, poor fit]"}
{"smiles": "CN1C(=O)[C@@H]2C[C@@H](CN2C(=O)Nc2ccccc2)Oc2ccccc21", "Potency": "inactive"}
{"smiles": "Cc1nnc2ccc(N3CCC(NC(=O)NC4CCCC4)CC3)nn12", "Potency": "inactive"}
{"smiles": "CCOc1cc(=O)n2c(c1C(=O)Nc1ccc3c(c1)OCO3)CCCC2", "Potency": "inconclusive: 5.62 µM [inhibitor, full curve]"}
{"smiles": "COc1ccc(CN2CC(OCc3ccccc3F)CN(C(=O)C3=NNC(=O)CC3)CC2=O)cc1", "note": "(stereo not given)", "Potency": "inactive"}
{"smiles": "CCc1nnc([C@@H]2CC(F)(F)CN2C(=O)COc2ccccc2)o1", "Potency": "inactive"}
{"smiles": "COc1cccc(-c2nc3cc4c(cc3cc2CN2CCSCC2)OCO4)c1OC", "Potency": "inconclusive: 35.5 µM [inhibitor, full curve, poor fit]"}
{"smiles": "CCc1nc2cc(N3CCC(C(=O)NCc4ccc5c(c4)OCO5)CC3)cnc2nc1CC", "Potency": "inconclusive: 70.8 µM [inhibitor, single point]"}
{"smiles": "CCNc1nccc(N2CCC(CC(=O)NCc3ccc(OC)c(OC)c3)CC2)n1", "Potency": "inconclusive: 50.1 µM [inhibitor, partial curve, poor fit]"}
{"smiles": "CC(C)OCCCNC(=O)C1CCCCC(=O)N1", "note": "(stereo not given)", "Potency": "inactive"}
{"smiles": "COc1cc(NC(=O)Nc2nc3c(s2)C[C@]2(C)CC[C@@H]4[C@H](OC(=O)[C@H]4C)[C@H]2[C@@H]3C)cc(OC)c1", "Potency": "inconclusive: 31.6 µM [inhibitor, full curve]"}
{"smiles": "c1cc(-c2cc3c(ccn3Cc3ccncc3)c(N3CCOCC3)n2)c2cc[nH]c2c1", "Potency": "active: 35.5 µM"}
{"smiles": "CC1=C(C(=O)OC(C)C)C(c2cccs2)N2C(CC(=O)NC3CC3)=CSC2=N1", "note": "(stereo not given)", "Potency": "inconclusive: 50.1 µM [inhibitor, partial curve, poor fit]"}
{"smiles": "NC(=O)c1ccc(OC2CCN(Cc3ccccn3)C2)nc1", "note": "(stereo not given)", "Potency": "inactive"}
{"smiles": "O=[S+]1([O-])c2cccnc2OC(Cn2cccc2)CN1Cc1cccc(F)c1", "note": "(stereo not given)", "Potency": "inconclusive: 20 µM [inhibitor, partial curve, poor fit]"}
{"smiles": "COc1ccc(CN2CCNc3cnc(OCc4cccnc4)cc3C2)cn1", "Potency": "inactive"}
{"smiles": "O=C(Nc1cccc(Cl)c1)c1ccc2oc(-c3ccnc(Cl)c3)nc2c1", "Potency": "inconclusive: 89.1 µM [inhibitor, partial curve, poor fit]"}
{"smiles": "C[S+](=O)([O-])CCn1ncc2cc(OCc3cccc(-c4cccc(CO)c4)c3)ccc21", "Potency": "inconclusive: 56.2 µM [inhibitor, partial curve, poor fit]"}
{"smiles": "NC1CCc2nn(CC(=O)N(Cc3ccccc3)Cc3ccco3)c(=O)n2CC1", "note": "(stereo not given)", "Potency": "inactive"}
{"smiles": "CCOC(=O)C1CCCN(C(=O)c2cc(C(C)(C)C)nc3c2cnn3C)C1", "note": "(stereo not given)", "Potency": "inconclusive: 35.5 µM [inhibitor, partial curve]"}
{"smiles": "Cc1ccc(CCN2CCCCC23Cc2ccccc2CN([S+](C)(=O)[O-])C3)cc1", "note": "(stereo not given)", "Potency": "inconclusive: 70.8 µM [inhibitor, partial curve, poor fit]"}
{"smiles": "COc1ccc(NC(=O)N[C@H]2[C@H](O)[C@@H](Sc3ccccc3)[C@@H]3OC[C@H]2O3)cc1", "Potency": "inconclusive: 100 µM [inhibitor, partial curve, poor fit]"}
{"smiles": "O[C@@H]1C[C@@H](c2nc(-c3ccc4c(c3)OCO4)no2)N(CCCc2ccccc2)C1", "Potency": "inconclusive: 126 µM [inhibitor, partial curve, poor fit]"}
{"smiles": "O=C1CC(c2noc(-c3ccc(F)cc3)n2)CN1c1ccc(Cl)cc1", "note": "(stereo not given)", "Potency": "inconclusive: 44.7 µM [inhibitor, partial curve, poor fit]"}
{"smiles": "O=C(Nc1ccc(F)cc1)C1CCc2nc(N3CCN(C(=O)C4CCC4)CC3)sc2C1", "note": "(stereo not given)", "Potency": "inconclusive: 70.8 µM [inhibitor, partial curve, poor fit]"}
{"smiles": "OCC1CN(C2CCC2)CC12CCN(Cc1ccsc1)CC2", "note": "(stereo not given)", "Potency": "inconclusive: 70.8 µM [inhibitor, single point]"}
{"smiles": "COCCn1ncc(N2CCCC(CC(=O)NCc3cccc(F)c3)C2)cc1=O", "note": "(stereo not given)", "Potency": "inactive"}
{"smiles": "FC(F)(F)c1ccc(CN2CCCC3(CC(c4cccc(C(F)(F)F)c4)=NO3)C2)cc1", "note": "(stereo not given)", "Potency": "inactive"}
{"smiles": "COCc1noc(CCNc2cc(C)nc(-c3ccccc3O)n2)n1", "Potency": "inconclusive: 50.1 µM [inhibitor, partial curve, poor fit]"}
{"smiles": "CN1C(=O)C2(CCN(C(=O)c3cc4c(s3)CCCC4)CC2)c2ccccc21", "Potency": "inconclusive: 89.1 µM [inhibitor, single point]"}
{"smiles": "CCOC(=O)c1ccccc1NC(=O)CN1C(=O)NC2(CCCCC2)C1=O", "Potency": "inconclusive: 15.8 µM [inhibitor, full curve, poor fit]"}
{"smiles": "CC(=O)NC1(C)CN(Cc2ccc(-c3cccc(C(F)(F)F)c3)s2)C1", "Potency": "active: 44.7 µM"}
{"smiles": "COc1cc2c(cc1OC)C(C[C@H]1CN(C(=O)c3cccn3C)CC[C@H]1CC(=O)O)=NCC2", "Potency": "inactive"}
{"smiles": "C[C@@H]1C(=O)O[C@H]2[C@H]1CC[C@@]1(C)Cc3sc(Nc4ccc(F)cc4)nc3[C@@H](C)[C@H]21", "Potency": "inactive"}
{"smiles": "CCCCc1cc(C[C@@H]2C[C@H](NC(=O)C(C)(C)C)C2(C)C)no1", "Potency": "inconclusive: 112 µM [inhibitor, partial curve, poor fit]"}
{"smiles": "O=[S+]1([O-])NC2(CCN(CC3CCCCC3)C2)CNc2ccccc21", "note": "(stereo not given)", "Potency": "inconclusive: 50.1 µM [inhibitor, partial curve, poor fit]"}
{"smiles": "COc1cccc(CN2CCC(F)(C(=O)N3CCCC3)CC2)c1OC", "Potency": "inconclusive: 35.5 µM [inhibitor, partial curve]"}
{"smiles": "Cc1ccc([S+](=O)([O-])N2CCCC2C(=O)N2CCC(N3Cc4cccn4C3=O)CC2)cc1", "note": "(stereo not given)", "Potency": "inconclusive: 70.8 µM [inhibitor, single point]"}
{"smiles": "O=C(c1nc2cccnc2n(CCc2ccccc2)c1=O)N1CCN([S+](=O)([O-])c2cccc(C(F)(F)F)c2)CC1", "Potency": "inconclusive: 35.5 µM [inhibitor, partial curve]"}
